No constants are given. Whether binding was seen depends on the method and setting. Binding seen in cells or lysates may run through a third protein. Some results given as binding are weak or reduced against the parent protein; the word gives no strength. Tags and fused reporters may be left off the sequences shown.
Columns and labels:
[1] = molecular target: T1, HIS-tagged Ddi1 (^HISDdi1) (yeast) (UniProt P40087); assay: pull-down; HIS-Ddi1 on Ni beads incubated with Ufo1 (GST-Ufo1 lysate or GFP-Ufo1 extract) together with GST-Rpn1 lysate at x1 or x2, no Ho (Figure 5A lane 7, Figure 5B lanes 5 and 6, Figure 5C); only the target purified
T1 sequence: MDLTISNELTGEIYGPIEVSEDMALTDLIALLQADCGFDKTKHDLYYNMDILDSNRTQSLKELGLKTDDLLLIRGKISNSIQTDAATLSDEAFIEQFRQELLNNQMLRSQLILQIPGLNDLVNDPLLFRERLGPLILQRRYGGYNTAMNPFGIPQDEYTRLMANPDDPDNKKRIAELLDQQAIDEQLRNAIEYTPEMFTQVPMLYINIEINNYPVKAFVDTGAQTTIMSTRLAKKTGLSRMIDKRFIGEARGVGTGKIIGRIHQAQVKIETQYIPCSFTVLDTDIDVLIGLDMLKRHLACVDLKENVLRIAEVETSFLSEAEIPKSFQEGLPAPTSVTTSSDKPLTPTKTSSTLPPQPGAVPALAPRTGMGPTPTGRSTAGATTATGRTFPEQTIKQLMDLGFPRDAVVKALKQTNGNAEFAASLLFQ

[2] = molecular target: T1, HIS-tagged Ddi1 (^HISDdi1) (yeast); assay: pull-down; HIS-Ddi1 on Ni beads incubated with GST-Ufo1 and/or GST-Rpn1 lysate together with yeast extract with ubiquitylated GFP-Ho (Figure 5A lanes 8-10); only the target purified
[3] = molecular target: T2, myc-tagged Cdc53 (^mycCdc53) (S. cerevisiae) (UniProt Q12018); assay: co-IP; as a6 but yeast extract without GFP-Ho; immunoprecipitated with anti-myc, anti-GST or anti-HIS (Figure 4, - Ho)
T2 sequence: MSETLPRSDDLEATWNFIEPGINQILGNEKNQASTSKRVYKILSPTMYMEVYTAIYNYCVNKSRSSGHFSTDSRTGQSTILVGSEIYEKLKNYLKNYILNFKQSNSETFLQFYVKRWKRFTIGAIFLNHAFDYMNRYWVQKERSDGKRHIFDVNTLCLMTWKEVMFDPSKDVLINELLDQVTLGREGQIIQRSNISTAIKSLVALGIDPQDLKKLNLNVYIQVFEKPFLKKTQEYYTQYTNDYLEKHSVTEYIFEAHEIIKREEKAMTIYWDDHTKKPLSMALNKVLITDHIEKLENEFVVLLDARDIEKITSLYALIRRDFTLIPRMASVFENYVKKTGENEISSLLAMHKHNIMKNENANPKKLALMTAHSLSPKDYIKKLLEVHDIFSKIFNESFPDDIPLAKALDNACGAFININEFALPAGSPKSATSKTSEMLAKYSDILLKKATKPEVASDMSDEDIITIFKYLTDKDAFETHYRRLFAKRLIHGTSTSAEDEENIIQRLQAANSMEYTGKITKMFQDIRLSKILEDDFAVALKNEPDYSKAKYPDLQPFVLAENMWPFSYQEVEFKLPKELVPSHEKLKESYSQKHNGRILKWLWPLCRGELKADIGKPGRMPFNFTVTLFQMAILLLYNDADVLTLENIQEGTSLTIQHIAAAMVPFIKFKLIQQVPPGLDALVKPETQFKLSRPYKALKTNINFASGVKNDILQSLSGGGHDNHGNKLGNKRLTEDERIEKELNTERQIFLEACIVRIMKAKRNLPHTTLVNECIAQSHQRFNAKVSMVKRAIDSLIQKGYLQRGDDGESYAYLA

[4] = molecular target: T1, HIS-tagged Ddi1 (^HISDdi1) (yeast); assay: pull-down; HIS-Ddi1 on Ni beads incubated with one lysate or extract alone (GST-Rpn1 or GST-Ufo1 bacterial lysate, GFP-Ho or GFP-Ufo1 yeast extract); washed with 2.5% Triton X100 and 100 mM imidazole (Figure 5A lanes 4-6, Figure 5B lanes 3 and 4); only the target purified
[5] = molecular target: T2, myc-tagged Cdc53 (^mycCdc53) (S. cerevisiae); assay: co-IP; bacterial lysates with HIS-Rpn1 and GST-Ufo1 mixed with yeast extract with myc-Cdc53 and GFP-Ho; aliquots immunoprecipitated with anti-myc, anti-GFP, anti-GST or anti-HIS and Protein A beads (Figure 4, + Ho)
[6] = molecular target: T3, GFP-tagged Ho endonuclease (^GFPHo) (yeast) (UniProt P09932); assay: as above
T3 sequence (chain, ubiquitylated as produced in yeast (sites not stated)): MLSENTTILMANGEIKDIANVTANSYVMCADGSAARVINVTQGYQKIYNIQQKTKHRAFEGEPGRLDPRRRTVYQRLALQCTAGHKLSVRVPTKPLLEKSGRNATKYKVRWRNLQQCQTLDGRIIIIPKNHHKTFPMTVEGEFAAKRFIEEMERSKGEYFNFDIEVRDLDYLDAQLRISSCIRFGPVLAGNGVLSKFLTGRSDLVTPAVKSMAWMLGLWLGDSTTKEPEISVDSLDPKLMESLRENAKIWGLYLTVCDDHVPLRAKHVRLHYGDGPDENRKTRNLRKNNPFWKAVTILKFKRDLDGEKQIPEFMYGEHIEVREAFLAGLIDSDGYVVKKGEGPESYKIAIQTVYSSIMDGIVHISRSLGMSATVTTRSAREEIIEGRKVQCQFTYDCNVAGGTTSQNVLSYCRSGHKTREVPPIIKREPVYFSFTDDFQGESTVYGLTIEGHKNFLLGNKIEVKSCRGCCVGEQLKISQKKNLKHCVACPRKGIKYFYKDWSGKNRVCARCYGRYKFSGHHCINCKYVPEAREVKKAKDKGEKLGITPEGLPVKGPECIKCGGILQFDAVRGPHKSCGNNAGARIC

[7] = molecular target: T4, GST-tagged full-length Ddi1 (^GSTFL-Ddi1) (yeast), P40087; assay: pull-down; recombinant GST fusion on GSH beads incubated with bacterial lysate holding a HIS-tagged protein; Western blot (Figures 1C, 3C, 3D, 5D, 5E with Rpn1 alone); only the target purified; conditions: remark: other sources report otherwise
T4 chain: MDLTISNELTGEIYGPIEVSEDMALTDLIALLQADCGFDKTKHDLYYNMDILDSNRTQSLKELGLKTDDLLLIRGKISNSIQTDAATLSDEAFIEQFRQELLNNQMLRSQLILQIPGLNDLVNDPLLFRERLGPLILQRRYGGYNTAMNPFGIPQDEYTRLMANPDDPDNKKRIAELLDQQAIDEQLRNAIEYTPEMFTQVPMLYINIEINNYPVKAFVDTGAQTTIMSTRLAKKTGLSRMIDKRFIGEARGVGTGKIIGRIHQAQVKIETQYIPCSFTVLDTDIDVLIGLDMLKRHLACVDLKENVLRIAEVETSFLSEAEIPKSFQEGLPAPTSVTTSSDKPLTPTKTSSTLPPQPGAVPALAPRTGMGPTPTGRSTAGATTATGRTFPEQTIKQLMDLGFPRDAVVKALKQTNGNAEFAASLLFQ

Binder	binding [1]	binding [2]	binding [3]	binding [4]	binding [5]	binding [6]	binding [7]
GST-tagged full-length Ufo1 (^GSTFL-Ufo1) (protein, UniProt Q04511 1-668) MERPGLVLQDLPPEILINIFSHLDEKDLFTLQELSTHFRNLIHDEELWKNLFKSRVHTTHFPTFSQSSKFSVEYIERTRGLHHWQHNKAIRTKYTIIPTRNWDQPSIERIVFDYPRVAAYNDGTITILQLQNHKRQKKFKKLIYIPCTTPQGCSTMDFNINAAVFGRFDGRVFGKLLSNKSYLTPVMEFTGRHSAGVTAICNSESWDTSREDWSVSGSENGEIIWWCENKLVKMWKVSNRVIWKLAFFKDWTLIMDDEKLYIIHQMQELHSIDIPKDLDEQPMRVRFFKMDFGSMTLVLADLNNVYTISVNPNGNFGNLRKLEMPEQICAVEIDEKTSQREQNWQFAGDDGCYISLLTTQNTLYIINIRDLSSSGLKVQCKISFDEQVYVSQVTNLIVVVALPNVLQILNAMTGELIKTVLKTEKFPEFLKVSQDKIIMGSGNVLNYLKFVSSDSKKHHHSTKGKNTVSNKWNETLNTELQYYDEDEDLRRKRQSEISRLIDAYGGDLELSGDTDEENDIQLRIALLESQEAQARNQAEAGEPVGDDEDEQLRRALEESQLIYETQTNSSANHGNNTNDEIDEDDEEFLRAIRQSRVEDERRRHLRNHTTGRRNGPLSDDNFATYGAAESSERTSTENTIGSSVGVDASNNVDEDLQLAIALSLSEIN	no binding (condition: with GST-Rpn1 lysate as competitor)	binds	no binding (condition: without GFP-Ho)	binds	binds	binds	
HIS-tagged Rpn1 (^HISRpn1), P38764 1-993 (protein) MVDESDKKQQTIDEQSQISPEKQTPNKKDKKKEEEEQLSEEDAKLKTDLELLVERLKEDDSSLYEASLNALKESIKNSTSSMTAVPKPLKFLRPTYPDLCSIYDKWTDPNLKSSLADVLSILAMTYSENGKHDSLRYRLLSDVSDFEGWGHEYIRHLALEIGEVYNDQVEKDAEDETSSDGSKSDGSAATSGFEFSKEDTLRLCLDIVPYFLKHNGEEDAVDLLLEIESIDKLPQFVDENTFQRVCQYMVACVPLLPPPEDVAFLKTAYSIYLSQNELTDAIALAVRLGEEDMIRSVFDATSDPVMHKQLAYILAAQKTSFEYEGVQDIIGNGKLSEHFLYLAKELNLTGPKVPEDIYKSHLDNSKSVFSSAGLDSAQQNLASSFVNGFLNLGYCNDKLIVDNDNWVYKTKGDGMTSAVASIGSIYQWNLDGLQQLDKYLYVDEPEVKAGALLGIGISASGVHDGEVEPALLLLQDYVTNPDTKISSAAILGLGIAFAGSKNDEVLGLLLPIAASTDLPIETAAMASLALAHVFVGTCNGDITTSIMDNFLERTAIELKTDWVRFLALALGILYMGQGEQVDDVLETISAIEHPMTSAIEVLVGSCAYTGTGDVLLIQDLLHRLTPKNVKGEEDADEEETAEGQTNSISDFLGEQVNEPTKNEEAEIEVDEMEVDAEGEEVEVKAEITEKKNGESLEGEEIKSEEKKGKSSDKDATTDGKNDDEEEEKEAGIVDELAYAVLGIALIALGEDIGKEMSLRHFGHLMHYGNEHIRRMVPLAMGIVSVSDPQMKVFDTLTRFSHDADLEVSMNSIFAMGLCGAGTNNARLAQLLRQLASYYSREQDALFITRLAQGLLHLGKGTMTMDVFNDAHVLNKVTLASILTTAVGLVSPSFMLKHHQLFYMLNAGIRPKFILALNDEGEPIKVNVRVGQAVETVGQAGRPKKITGWITQSTPVLLNHGERAELETDEYISYTSHIEGVVILKKNPDYREEE							binds

— article PMC3398040
